# From PubChem BioAssay AID2451 (National Center for Advancing Translational Sciences (NCATS), 2010)
# “And” between values parts separate entries of the source, which are not always exact repeats. Equal entries are not always repeated. The whole screen tested about 290,000 compounds, of which about 2,100 (0.72%) were called active. The shares of active, inactive and inconclusive entries below differ from those in the screen. Calls follow the shape of the dose curve; as a rule, active = well fitted inhibition curve with a large enough effect; inconclusive = small, poorly fitted or top-dose-only effect, or effect the other way; inactive = flat fitted curve, though single readings scatter. Where the call is inconclusive, the potency comes from a doubtful curve fit.
# Target: Fructose-bisphosphate aldolase (Giardia intestinalis (strain ATCC 50803 / WB clone C6)) (UniProt A8B2U2)
# Chain of UniProt A8B2U2 (A8B2U2 whole entry, looked up): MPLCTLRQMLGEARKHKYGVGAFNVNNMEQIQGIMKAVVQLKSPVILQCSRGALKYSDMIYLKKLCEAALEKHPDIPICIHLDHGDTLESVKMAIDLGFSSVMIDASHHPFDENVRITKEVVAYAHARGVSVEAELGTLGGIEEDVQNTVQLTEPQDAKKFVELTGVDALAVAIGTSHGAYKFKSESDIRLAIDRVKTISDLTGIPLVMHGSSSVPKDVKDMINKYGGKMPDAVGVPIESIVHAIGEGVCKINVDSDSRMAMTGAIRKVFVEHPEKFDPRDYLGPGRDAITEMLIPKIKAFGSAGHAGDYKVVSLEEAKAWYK
# Assay: qHTS Assay for Inhibitors of Fructose-1,6-bisphosphate Aldolase from Giardia Lamblia; also: nearly all actives have a fitted effect of over 55% in size
# Details: purified Giardia FBPA; activity, negative = inhibition: at 59.6 µM (top of the series) unless noted
# Method in brief: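 Giardia FBPA (40 nM reagent) was preincubated 10 min at RT with compound (up to 57.5 uM final), then substrate plus GAPDH/TPI/NAD/arsenate coupling system with diaphorase/resazurin was added; resorufin fluorescence (525/598 nm) was read after 20 min.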
# % is scaled to controls: 0 for no effect and ±100 for the full control effect; potency is read from the fitted curve at half-maximal effect; tags tell the direction and shape of the fitted curve.
SMILES,"activity, negative = inhibition",Potency
O=C(N1CCOCC1)N1c2ccccc2CC(N2CCOCC2)c2ccccc21 (centres undefined),inconclusive: 42.4% [activator],
O=C(O)c1cccc(NS(=O)(=O)c2ccc3c(c2)OCCCO3)c1,,"inconclusive: 19.9 µM [activator, single point]"
COC(=O)NNC(=S)Nc1cc(OC)ccc1OC,,"inconclusive: 22.3 µM [inhibitor, partial curve]"
Cc1ccc2cccc(SCC(=O)NCC#N)c2n1,,"inconclusive: 15.8 µM [inhibitor, partial curve]"
NC(=O)C1CCN(C2=C(Cl)C(=O)c3ccccc3C2=O)CC1,,"inconclusive: 2.23 µM [inhibitor, full curve]"
COc1cccc(CNCc2ccc(OC)c3ccccc23)c1OC,,"inconclusive: 17.8 µM [inhibitor, partial curve]"
Nc1c(C(=O)NCCN2CCOCC2)c2nc3ccccc3nc2n1Cc1ccccc1,,"inconclusive: 17.7 µM [inhibitor, partial curve, poor fit]"
CC1=NN(c2ccccc2)C(=O)C1N=Nc1cccc(O)c1 (centres undefined),,active: 10 µM
CC(C)COc1cccc(C(=O)Nc2ccc(CN3CCOCC3)cc2)c1,inactive: -7.74%,
CCOC(=O)N1CCN(C(=O)CCCCCn2c(=S)[nH]c3ccsc3c2=O)CC1,,"inconclusive: 22.3 µM [inhibitor, single point]"
CCOC(=O)c1c2ccc(OCC(=O)N/N=C/c3ccc(C)cc3)cc2n2ccccc12,,"inconclusive: 3.15 µM [inhibitor, full curve]"
COc1ccccc1-c1coc2cc(O)cc(O)c2c1=O,inactive: -7.42%,
CCc1ccc2c(c1)c1nc(C)sc1n2CC,,"inconclusive: 15.8 µM [inhibitor, partial curve]"
OC1CCN(Cc2cccc3ccccc23)CC1,,"inconclusive: 15.8 µM [inhibitor, partial curve]"
CC(C)Cn1c([N+](=O)[O-])nc2c1c(=O)[nH]c(=O)n2C,,"inconclusive: 15.8 µM [inhibitor, partial curve]"
COC/C=C/C1=CC2=CC(=O)C(C)(OC(=O)c3cnc4ccccc4n3)C(=O)C2=CN1CC1CC1 (centres undefined),,"inconclusive: 0.998 µM [inhibitor, full curve]"
Cc1ccc(NC(=O)CNCc2ccccc2Cl)cc1S(=O)(=O)N(C)C,,active: 22.4 µM
Cc1cc(O)c(Oc2cc(C)cc(O)c2O)c(O)c1,,"inconclusive: 15.8 µM [inhibitor, partial curve]"
N/C(=N\NS(=O)(=O)c1cc(C(F)(F)F)cc(C(F)(F)F)c1)c1ccccn1,,"inconclusive: 17.7 µM [inhibitor, single point]"
Nc1nc2nccc(-c3ccc(Cl)cc3)n2n1,,"inconclusive: 17.8 µM [activator, partial curve]"
O=C(C1=C[C@H](c2csc3ccccc23)C[C@H](OCCCCO)O1)N1CCN(Cc2ccccc2)CC1,,"inconclusive: 25.1 µM [inhibitor, single point]"
Cc1ccc([N+](=O)[O-])cc1NC(=S)NC(=O)c1c(Cl)cnn1C,,active: 7.94 µM
NC(=O)c1c(NC(=O)C2CCCO2)sc2c1CCCCC2 (centres undefined),,"inconclusive: 17.7 µM [inhibitor, partial curve]"
CN(C)C1(CNCC(O)c2ccccc2)CCCCC1 (centres undefined),,"inconclusive: 14.1 µM [inhibitor, partial curve]"
Cn1c(C(=O)Nc2ccc3c(c2)OCO3)cc2sccc21,,"inconclusive: 50 µM [inhibitor, partial curve, poor fit]"

SMILES,"activity, negative = inhibition",Potency
Cc1cc(C(=O)OCC(=O)Nc2sc3c(c2C#N)CCC(C)C3)c2ccccc2n1 (centres undefined),inactive: -0.385%,
CCOc1ccccc1NS(=O)(=O)c1c(C)noc1C,,active: 12.6 µM
CCN1CCN(CC(=O)Nc2cc(C(F)(F)F)ccc2OCCOC)CC1,,active: 6.29 µM
O=C(N/N=C/c1cc([N+](=O)[O-])cc(Br)c1O)C12CC3CCC(CC(C3)C1)C2,,"inconclusive: 14.1 µM [activator, partial curve]"
O=c1c(N2CCOCC2)nsnc1N1CCOCC1,,"inconclusive: 1.77 µM [inhibitor, full curve]"
COc1ccc2c(c1)c(CC(=O)Nc1cc(C)ccc1C)c(C)n2C(=O)c1ccc(Cl)cc1,inactive: -1.3%,
Cc1ccc(/C=C/C(=O)c2c(C)cc(C)[nH]c2=O)cc1,inactive: 0.21%,
c1ccc(CC2CCN(Cc3ccccn3)CC2)cc1,,"inconclusive: 19.9 µM [inhibitor, partial curve]"
CN(C)c1ccc(P(=O)(OC2CCCCC2)C(O)c2ccccn2)cc1 (centres undefined),,"inconclusive: 17.7 µM [inhibitor, partial curve]"
CC(=O)Nc1ccc(NC(=O)c2nccnc2C(=O)O)cn1,,"inconclusive: 22.4 µM [inhibitor, partial curve]"
CCc1cc2c(Nc3ccccc3O)nc(C)nc2s1,,"inconclusive: 28.2 µM [inhibitor, single point]"
Cc1ccn2cc(-c3cccc(NC(=O)CCC(=O)O)c3)nc2c1,,"inconclusive: 20 µM [inhibitor, partial curve]"
CCCCC(=O)OCC(=O)c1ccc(OCC)cc1,inactive: -0.107%,
Cc1occc1-c1nnc(SCC(=O)Nc2ccccc2)n1C(C)c1ccccc1 (centres undefined),inactive: 1.06%,
O=C(N/N=C/c1ccccn1)c1cc(-c2ccccc2)nc2ccccc12,,active: 14.1 µM
CCCn1c(C)nc2c(N(C)CCN(C)C)nc(C)nc21,inactive: 1.64%,
CCCC(=O)Nc1nnc(/C=C/c2ccc(OC)cc2)s1,inactive: 8.89%,
Cc1c(O)ccc(C(=O)CN2CCN(Cc3ccc4c(c3)OCO4)CC2)c1O,inactive: -25.6%,
CC(=O)N1CCN(S(=O)(=O)c2cccc(C(=O)Nc3nc4ccccc4[nH]3)c2)CC1,,"inconclusive: 17.7 µM [inhibitor, partial curve]"
O=C1C(Cl)=C(NCCN2CCCCC2)C(=O)c2ccccc21,,"inconclusive: 0.354 µM [inhibitor, full curve]"
CCCCC(=O)Oc1ccccc1C(=O)O,,inactive
Cc1cc(NC(=O)CN2CCC(C)CC2)no1,,"inconclusive: 7.06 µM [inhibitor, partial curve]"
CN1CCc2cccc3c2C1Cc1ccc(O)c(O)c1-3 (centres undefined),,active: 14.1 µM
O=S(=O)(CCN1C=CC(C(F)(F)F)=NCC1)c1ccc(F)cc1,inactive: -1.24%,
CCC(=O)O[C@@]1(C(=O)SCF)[C@@H](C)C[C@H]2[C@@H]3C[C@@H](F)C4=CC(=O)C=C[C@@]4(C)[C@]3(F)[C@@H](O)C[C@]21C,inactive: -4.68% [at 21.7 µM],

SMILES,"activity, negative = inhibition",Potency
O=c1[nH]c(-c2ccccn2)nc2sc(-c3ccccc3)cc12,,"inconclusive: 3.97 µM [inhibitor, full curve]"
CCN(CC)CCNC(=O)c1ccc2c(c1NCCO)C(=O)c1ccccc1C2=O,,"inconclusive: 0.561 µM [inhibitor, full curve]"
Cc1cccc(Oc2c([N+](=O)[O-])c(=O)n(C)c3ccccc23)c1,,"inconclusive: 17.7 µM [inhibitor, partial curve]"
O=C(CSc1cccc2cccnc12)Nc1cc(C(=O)O)cc(C(=O)O)c1,,active: 25.1 µM
CCCCC1=CC2=C(c3ccco3)C(=O)C(C)(OC(=O)c3ccc(OC)cc3)C(=O)C2=CN1CCOC (centres undefined),,"inconclusive: 3.15 µM [inhibitor, full curve] and inconclusive: 2.81 µM [inhibitor, partial curve]"
Cc1c(C(=O)c2ccc(N(C)C)cc2)c2ccccn2c1CCC#N,,"inconclusive: 35.4 µM [inhibitor, single point]"
Cc1cc(-c2nnc(CCC(=O)N(CC3CC3)CC3CCCO3)o2)no1 (centres undefined),inactive: 2.7%,
COC(=O)NC(c1cccc(C)c1)[C@]1(C(C)=O)CCCC1=O (some centres undefined),inactive: 0.543% [at 12.9 µM],
CCC1CCC2(CC1)NNC(=S)NN2,,active: 12.6 µM
CC(Sc1nnc2ccccn12)C(N)=O (centres undefined),inactive: 3.67%,
CC1CC(C)CN(C(=O)c2ccc(N3CC4CC(C3)c3cccc(=O)n3C4)c([N+](=O)[O-])c2)C1 (centres undefined),inactive: -3.63%,
CC1CCCC(N2CCN(C(=O)c3ccc([N+](=O)[O-])cc3)CC2)C1 (centres undefined),,"inconclusive: 31.6 µM [inhibitor, single point]"
COc1ccc2ccccc2c1C1CC(=O)N2CN(C)CSC2=C1C#N (centres undefined),,"inconclusive: 9.98 µM [inhibitor, partial curve]"
CCOC(=O)c1ccc2c(c1)sc(=NC(=O)c1ccco1)n2CCOC,inactive: -0.636%,
O=c1cc(O)c2sc(Nc3ccc(F)cc3)nc2[nH]1,,"inconclusive: 19.9 µM [inhibitor, partial curve]"
CCCCC(c1nnnn1CCOC)N1CCN(Cc2ccccc2)CC1 (centres undefined),,"inconclusive: 19.9 µM [inhibitor, single point]"
CC(=O)c1ccc(NC(=O)CSc2n[nH]c(-c3cccnc3)n2)cc1,,"inconclusive: 28.2 µM [inhibitor, single point]"
Cc1ccc2oc(=O)c3cc(C(=O)NCc4ccco4)sc3c2c1,inactive: 1.77%,
COc1ccc(Br)cc1C1CC(=O)N2CN(C)CSC2=C1C#N (centres undefined),,"inconclusive: 3.54 µM [inhibitor, full curve]"
O=C1c2cccc3cc([N+](=O)[O-])cc(c23)C(=O)N1CC1CCCO1 (centres undefined),inactive: -1.92%,
Nc1ncnc(Nc2cc(Cl)cc(Cl)c2)c1[N+](=O)[O-],inactive: 4.14%,
CCOC(=O)C(C)Sc1nc(-c2ccccn2)ncc1OC (centres undefined),,active: 15.8 µM
COc1ccc(-n2c(SCC(N)=O)nnc2-c2ccc(NS(=O)(=O)c3ccc(C)cc3)cc2)cc1,inactive: 0.0148%,
COc1ccc(CNc2ncc(-c3ccccc3)n2C)c(OC)c1OC,,"inconclusive: 20 µM [inhibitor, partial curve]"
